Reference: PMC4065332, “PEX14 binding to Arabidopsis PEX5 has differential effects on PTS1 and PTS2 cargo occupancy of the receptor” (Febs Letters, 2014)
These are yes or no findings as the source states them, for the method shown. For part of these data: In cells and extracts the contact can be indirect. Some results given as binding are weak or reduced against the parent protein; the word gives no strength. Blank lines part the entries; values can stand above or below the binder they belong to.

Experiments:
[1] = biological target: T1, lissamine-YQSKL; assay: fluorescence polarisation; fluorescence anisotropy; PEX14N titrated (3 μM to 1 nM in the results; 10 μM–1 nM in the methods) against constant PEX5C (100 nM) and lissamine-YQSKL (100 nM); HEPES 20 mM, NaCl 150 mM, pH 7.5; both purified
T1 sequence (peptide, lissamine label): YQSKL

[2] = biological target: T2, PEX5 (340–728), termed PEX5C (Arabidopsis thaliana, UniProt Q9FMA3 340-728); assay: pull-down; lissamine-YQSKL incubated with Ni–NTA in the presence or absence of PEX5C; eluted; PEX5C by anti-polyhistidine blot, peptide by fluorescence intensity at 595 nm; both purified
T2 construct: Arabidopsis PEX5 residues 340-728; holds six of the nine W-X3-F/Y motifs and the TPR domain; lacks residues 314-334; also called His6-PEX5C; AtPEX5C; source: E. coli, purified via IMAC
T2 sequence (looked up): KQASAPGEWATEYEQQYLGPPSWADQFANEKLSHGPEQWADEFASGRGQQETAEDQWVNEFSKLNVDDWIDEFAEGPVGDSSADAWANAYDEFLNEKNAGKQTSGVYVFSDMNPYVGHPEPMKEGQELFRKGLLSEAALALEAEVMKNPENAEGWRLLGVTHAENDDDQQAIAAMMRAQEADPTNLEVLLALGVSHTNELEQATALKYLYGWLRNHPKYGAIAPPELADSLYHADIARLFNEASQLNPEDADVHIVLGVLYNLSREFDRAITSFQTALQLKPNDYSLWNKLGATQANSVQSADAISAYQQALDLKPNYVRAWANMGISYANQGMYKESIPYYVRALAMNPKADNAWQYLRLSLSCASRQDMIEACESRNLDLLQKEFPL

[3] = biological target: T3, PEX5 (1–728), recombinant Arabidopsis PEX5 (Arabidopsis thaliana) (UniProt Q9FMA3); assay: pull-down; PEX14N, PEX5C or PEX5 and lissamine-YQSKL (5 μM each) in PBS, 4 °C, 1 h; captured on Strep-Tactin resin by the StrepII tag of PEX14N; eluted with 7.5 mM desthiobiotin; anti-polyhistidine blot and fluorescence at 595 nm; both purified
T3 sequence: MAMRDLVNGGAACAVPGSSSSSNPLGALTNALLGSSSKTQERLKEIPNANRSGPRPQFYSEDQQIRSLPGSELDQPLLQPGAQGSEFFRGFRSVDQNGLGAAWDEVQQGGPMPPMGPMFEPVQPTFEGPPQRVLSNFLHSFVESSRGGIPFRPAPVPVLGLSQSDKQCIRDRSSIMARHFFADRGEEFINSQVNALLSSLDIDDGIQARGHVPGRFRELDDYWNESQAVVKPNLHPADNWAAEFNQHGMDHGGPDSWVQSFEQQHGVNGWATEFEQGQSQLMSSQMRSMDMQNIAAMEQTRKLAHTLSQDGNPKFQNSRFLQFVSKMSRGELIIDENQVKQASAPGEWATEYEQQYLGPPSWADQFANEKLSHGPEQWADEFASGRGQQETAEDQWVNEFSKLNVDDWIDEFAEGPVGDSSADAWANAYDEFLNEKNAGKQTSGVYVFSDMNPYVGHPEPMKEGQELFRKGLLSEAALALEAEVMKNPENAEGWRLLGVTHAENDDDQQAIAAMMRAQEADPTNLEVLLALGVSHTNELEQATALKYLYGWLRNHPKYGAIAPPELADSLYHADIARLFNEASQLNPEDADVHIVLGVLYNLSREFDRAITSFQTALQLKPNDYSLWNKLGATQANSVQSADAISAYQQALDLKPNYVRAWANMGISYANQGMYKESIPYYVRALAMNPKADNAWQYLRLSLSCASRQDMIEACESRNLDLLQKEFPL

[4] = biological target: T2, PEX5 (340–728), termed PEX5C; assay: as above
[5] = biological target: T3, PEX5 (1–728), recombinant Arabidopsis PEX5 (Arabidopsis thaliana); assay: pull-down; Arabidopsis cytosolic fraction (~6 mg/mL, 500 μL) depleted on Ni–NTA, incubated with hexahistidine-tagged recombinant protein (33 μM in 50 μL PBS), 4 °C, 1 h; captured on Ni–NTA, washed with PBS, eluted with 1 M imidazole; immunoblots against PEX5, PEX7 and thiolase; only the target purified
[6] = biological target: T4, Peroxisomal NAD+-malate dehydrogenase (pMDH1), recombinant (Arabidopsis thaliana) (UniProt O82399); assay: as above
T4 sequence: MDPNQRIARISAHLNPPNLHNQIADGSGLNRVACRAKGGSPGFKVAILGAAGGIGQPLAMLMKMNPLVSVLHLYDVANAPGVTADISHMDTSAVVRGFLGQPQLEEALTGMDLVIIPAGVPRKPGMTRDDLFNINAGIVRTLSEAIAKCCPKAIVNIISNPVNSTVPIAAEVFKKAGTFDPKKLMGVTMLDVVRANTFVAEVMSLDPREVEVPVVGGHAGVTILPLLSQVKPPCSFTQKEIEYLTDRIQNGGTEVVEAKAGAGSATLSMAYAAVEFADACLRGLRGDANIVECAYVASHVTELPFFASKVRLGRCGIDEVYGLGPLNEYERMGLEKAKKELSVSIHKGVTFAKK

[7] = biological target: T2, PEX5 (340–728), termed PEX5C; assay: far-Western, overlay or dot blot; purified PEX5 constructs pipetted onto nitrocellulose, blocked in 3% BSA PBS-T, probed 1 h with peptide-HRP (200 nM) or PEX14N-HRP (50 nM), ECL; for unloading then incubated with PEX14N 0.2 μM 1 h and 2 μM 16 h at 4 °C; both purified
[8] = biological target: T5, Δ3,5,Δ2,4-Dienoyl-coenzyme A isomerase (DCI1), recombinant (Arabidopsis thaliana) (UniProt Q9FHR8); assay: pull-down; Arabidopsis cytosolic fraction (~6 mg/mL, 500 μL) depleted on Ni–NTA, incubated with hexahistidine-tagged recombinant protein (33 μM in 50 μL PBS), 4 °C, 1 h; captured on Ni–NTA, washed with PBS, eluted with 1 M imidazole; immunoblots against PEX5, PEX7 and thiolase; only the target purified
T5 sequence: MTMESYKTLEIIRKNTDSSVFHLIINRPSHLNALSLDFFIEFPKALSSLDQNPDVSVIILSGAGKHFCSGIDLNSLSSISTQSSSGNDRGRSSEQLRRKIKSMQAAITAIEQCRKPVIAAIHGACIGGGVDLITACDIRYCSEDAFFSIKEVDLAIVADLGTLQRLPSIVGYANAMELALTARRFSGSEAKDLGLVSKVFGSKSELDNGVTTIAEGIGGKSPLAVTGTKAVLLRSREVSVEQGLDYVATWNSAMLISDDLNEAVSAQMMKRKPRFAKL

B2: PEX7 (endogenous, Arabidopsis cytosol) (receptor, UniProt Q9XF57 1-317)
chain: MPVFKAPFNGYSVKFSPFYESRLAVATAQNFGILGNGRIHVLELAPGAPGVTESVSYDTADAVYDVCWSESHDSVLIAAIGDGSVKIYDTALPPPSNPIRSFQEHAREVQSVDYNPTRRDSFLTSSWDDTVKLWAMDRPASVRTFKEHAYCVYQAVWNPKHGDVFASASGDCTLRIWDVREPGSTMIIPAHDFEILSCDWNKYDDCILATSSVDKTVKVWDVRSYRVPLAVLNGHGYAVRKVKFSPHRRSLIASCSYDMSVCLWDYMVEDALVGRYDHHTEFAVGIDMSVLVEGLMASTGWDELVYVWQQGMDPRAS
binding [5]: binds | binding [6]: binds

Binder: CGGGYQSEL (coupled to HRP-maleimide (conjugated to the sulfhydryl)) [HRP–YQSEL (… coupled to HRP–maleimide)]
binding [7]: no binding (tested: 200 nM)

B3: PEX5 (endogenous, Arabidopsis cytosol) (receptor, UniProt Q9FMA3 1-728)
chain: T3 sequence
binding [6]: binds | binding [8]: binds

Results, then the binder that gave them:

binding [1]: binds
B1: PEX5 (340–728), termed PEX5C (domain or fragment, UniProt Q9FMA3 340-728)
chain: T2 sequence (looked up)

binding [2]: binds | binding [3]: binds | binding [4]: binds
Binder: YQSKL (lissamine label) [lissamine-YQSKL]
